{
  "source": "the supplement of paper PMC8728848",
  "assay_in_all_cases": "glycan array binding signal (z-score within array); higher = stronger binding",
  "settings_in_all_cases": "glycan notation: IUPAC condensed, linker removed",
  "key": {"[1]": {"target": "Neu5Ac(a2-6)Gal(b1-4)GlcNAc(b1-2)Man(a1-3)[Man(a1-6)]Man(b1-4)GlcNAc(b1-4)GlcNAc", "outline": "(§1)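 From the Consortium for Functional Glycomics database, 3228 arrays were curated, keeping only those whose protein sequence was available. Binding is given as a within-array Z-score averaged across arrays sharing a protein sequence and across linkers. Negative Z-scores can be read as non-binding.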"}, "[2]": {"target": "Neu5Ac(a2-6)Gal(b1-4)GlcNAc(b1-2)Man(a1-3)[Neu5Ac(a2-3)Gal(b1-4)GlcNAc(b1-2)Man(a1-6)]Man(b1-4)GlcNAc(b1-4)GlcNAc", "outline": "as §1"}, "[3]": {"target": "Neu5Ac(a2-6)Gal(b1-4)GlcNAc(b1-2)Man(a1-3)[Neu5Ac(a2-6)Gal(b1-4)GlcNAc(b1-2)Man(a1-6)]Man(b1-4)GlcNAc(b1-4)GlcNAc", "outline": "as §1"}, "[4]": {"target": "Neu5Ac(a2-6)Gal(b1-4)GlcNAc(b1-2)Man(a1-3)[Neu5Ac(a2-6)Gal(b1-4)GlcNAc(b1-2)Man(a1-6)]Man(b1-4)GlcNAc(b1-4)[Fuc(a1-6)]GlcNAc", "outline": "as §1"}, "[5]": {"target": "Neu5Ac(a2-6)Gal(b1-4)GlcNAc(b1-2)Man(a1-6)Man(b1-4)GlcNAc(b1-4)GlcNAc", "outline": "as §1"}, "[6]": {"target": "Neu5Ac(a2-6)Gal(b1-4)GlcNAc(b1-2)Man(a1-6)[Gal(b1-4)GlcNAc(b1-2)Man(a1-3)]Man(b1-4)GlcNAc(b1-4)GlcNAc", "outline": "as §1"}, "[7]": {"target": "Neu5Ac(a2-6)Gal(b1-4)GlcNAc(b1-2)Man(a1-6)[GlcNAc(b1-2)Man(a1-3)]Man(b1-4)GlcNAc(b1-4)GlcNAc", "outline": "as §1"}, "[8]": {"target": "Neu5Ac(a2-6)Gal(b1-4)GlcNAc(b1-2)Man(a1-6)[Man(a1-3)]Man(b1-4)GlcNAc(b1-4)GlcNAc", "outline": "as §1"}, "[9]": {"target": "Neu5Ac(a2-6)Gal(b1-4)GlcNAc(b1-2)[Neu5Ac(a2-6)Gal(b1-4)GlcNAc(b1-4)]Man(a1-3)[GlcNAc(b1-4)][Neu5Ac(a2-6)Gal(b1-4)GlcNAc(b1-2)[Neu5Ac(a2-6)Gal(b1-4)GlcNAc(b1-6)]Man(a1-6)]Man(b1-4)GlcNAc(b1-4)GlcNAc", "outline": "as §1"}, "[10]": {"target": "Neu5Ac(a2-6)Gal(b1-4)GlcNAc(b1-2)[Neu5Ac(a2-6)Gal(b1-4)GlcNAc(b1-4)]Man(a1-3)[GlcNAc(b1-4)][Neu5Ac(a2-6)Gal(b1-4)GlcNAc(b1-4)Man(a1-6)]Man(b1-4)GlcNAc(b1-4)GlcNAc", "outline": "as §1"}, "[11]": {"target": "Neu5Ac(a2-6)Gal(b1-4)GlcNAc(b1-2)[Neu5Ac(a2-6)Gal(b1-4)GlcNAc(b1-6)]Man(a1-6)[Neu5Ac(a2-6)Gal(b1-4)GlcNAc(b1-2)Man(a1-3)][GlcNAc(b1-4)]Man(b1-4)GlcNAc(b1-4)GlcNAc", "outline": "as §1"}, "[12]": {"target": "Neu5Ac(a2-6)Gal(b1-4)GlcNAc(b1-3)Gal(b1-3)GlcNAc", "outline": "as §1"}, "[13]": {"target": "Neu5Ac(a2-6)Gal(b1-4)GlcNAc(b1-3)Gal(b1-4)GlcNAc", "outline": "as §1"}, "[14]": {"target": "Neu5Ac(a2-6)Gal(b1-4)GlcNAc(b1-3)Gal(b1-4)GlcNAc(b1-2)Man(a1-3)[Neu5Ac(a2-6)Gal(b1-4)GlcNAc(b1-3)Gal(b1-4)GlcNAc(b1-2)Man(a1-6)]GalNAc", "outline": "as §1"}, "[15]": {"target": "Neu5Ac(a2-6)Gal(b1-4)GlcNAc(b1-3)Gal(b1-4)GlcNAc(b1-3)Gal(b1-4)GlcNAc", "outline": "as §1"}, "[16]": {"target": "Neu5Ac(a2-6)Gal(b1-4)GlcNAc(b1-3)Gal(b1-4)GlcNAc(b1-3)Gal(b1-4)GlcNAc(b1-2)Man(a1-3)[Neu5Ac(a2-6)Gal(b1-4)GlcNAc(b1-3)Gal(b1-4)GlcNAc(b1-3)Gal(b1-4)GlcNAc(b1-2)Man(a1-6)]GalNAc", "outline": "as §1"}, "[17]": {"target": "Neu5Ac(a2-6)Gal(b1-4)GlcNAc(b1-3)Gal(b1-4)GlcNAc(b1-3)GalNAc", "outline": "as §1"}, "[18]": {"target": "Neu5Ac(a2-6)Gal(b1-4)GlcNAc(b1-3)Gal(b1-4)GlcNAc(b1-3)[Neu5Ac(a2-6)Gal(b1-4)GlcNAc(b1-3)Gal(b1-4)GlcNAc(b1-6)]GalNAc", "outline": "as §1"}, "[19]": {"target": "Neu5Ac(a2-6)Gal(b1-4)GlcNAc(b1-3)Gal(b1-4)GlcNAc(b1-6)[Gal(b1-3)]GalNAc", "outline": "as §1"}, "[20]": {"target": "Neu5Ac(a2-6)Gal(b1-4)GlcNAc(b1-3)Gal(b1-4)[Fuc(a1-3)]GlcNAc(b1-3)Gal(b1-4)[Fuc(a1-3)]GlcNAc", "outline": "as §1"}, "[21]": {"target": "Neu5Ac(a2-6)Gal(b1-4)GlcNAc(b1-3)GalNAc", "outline": "as §1"}, "[22]": {"target": "Neu5Ac(a2-6)Gal(b1-4)GlcNAc(b1-3)[Neu5Ac(a2-6)Gal(b1-4)GlcNAc(b1-6)]GalNAc", "outline": "as §1"}, "[23]": {"target": "Neu5Ac(a2-6)Gal(b1-4)GlcNAc(b1-6)GalNAc", "outline": "as §1"}, "[24]": {"target": "Neu5Ac(a2-6)Gal(b1-4)GlcNAc(b1-6)[Gal(b1-3)GlcNAc(b1-3)]Gal(b1-4)Glc", "outline": "as §1"}, "[25]": {"target": "Neu5Ac(a2-6)Gal(b1-4)GlcNAc(b1-6)[Gal(b1-3)]GalNAc", "outline": "as §1"}, "[26]": {"target": "Neu5Ac(a2-6)Gal(b1-4)GlcNAc6S", "outline": "as §1"}, "Neu5Ac(a2-6)GalNAc": {"target": "Neu5Ac(a2-6)GalNAc", "outline": "as §1"}, "[27]": {"target": "Neu5Ac(a2-6)GalNAc(b1-4)GlcNAc", "outline": "as §1"}, "[28]": {"target": "Neu5Ac(a2-6)GalNAc(b1-4)GlcNAc6S", "outline": "as §1"}, "[29]": {"target": "Neu5Ac(a2-6)GlcNAc(b1-4)GlcNAc", "outline": "as §1"}, "[30]": {"target": "Neu5Ac(a2-6)GlcNAc(b1-4)GlcNAc(b1-4)GlcNAc", "outline": "as §1"}},
  "note": "Some of the results follow.",
  "data": [
    {"binder": "EULS2 M4 (Oryza sativa) (protein) MVYCRANPNYAMTARNGAVVLAPANPKDEYQHWIKDMRWSTSIKDEEGYPAFALVNKATGQAIKHSLGQSHPVRLVPYNPEVMDESVLWTESRDVGNGFRCIRMVNNIYLNFDAFHGDKYHGGVRDGTDIVLWKWCEGDSLRWKIQPYYILEQKLISEEDLNSAVDHHHHHH", "values": [
      {"measurement": "glycan array binding signal (z-score)", "setting": "[1]", "value": -0.489},
      {"measurement": "glycan array binding signal (z-score)", "setting": "[2]", "value": 1.15},
      {"measurement": "glycan array binding signal (z-score)", "setting": "[3]", "value": 1.08},
      {"measurement": "glycan array binding signal (z-score)", "setting": "[4]", "value": -0.557},
      {"measurement": "glycan array binding signal (z-score)", "setting": "[5]", "value": -0.664},
      {"measurement": "glycan array binding signal (z-score)", "setting": "[6]", "value": -0.612},
      {"measurement": "glycan array binding signal (z-score)", "setting": "[7]", "value": -0.559},
      {"measurement": "glycan array binding signal (z-score)", "setting": "[8]", "value": -0.55},
      {"measurement": "glycan array binding signal (z-score)", "setting": "[9]", "value": -0.51},
      {"measurement": "glycan array binding signal (z-score)", "setting": "[10]", "value": -0.656},
      {"measurement": "glycan array binding signal (z-score)", "setting": "[11]", "value": -0.478},
      {"measurement": "glycan array binding signal (z-score)", "setting": "[12]", "value": 2.81},
      {"measurement": "glycan array binding signal (z-score)", "setting": "[13]", "value": -0.579},
      {"measurement": "glycan array binding signal (z-score)", "setting": "[14]", "value": -0.284},
      {"measurement": "glycan array binding signal (z-score)", "setting": "[15]", "value": -0.507},
      {"measurement": "glycan array binding signal (z-score)", "setting": "[16]", "value": 0.808},
      {"measurement": "glycan array binding signal (z-score)", "setting": "[17]", "value": -0.1},
      {"measurement": "glycan array binding signal (z-score)", "setting": "[18]", "value": 2.05},
      {"measurement": "glycan array binding signal (z-score)", "setting": "[19]", "value": 1.43},
      {"measurement": "glycan array binding signal (z-score)", "setting": "[20]", "value": 4.01},
      {"measurement": "glycan array binding signal (z-score)", "setting": "[21]", "value": -0.345},
      {"measurement": "glycan array binding signal (z-score)", "setting": "[22]", "value": 7.46},
      {"measurement": "glycan array binding signal (z-score)", "setting": "[23]", "value": -0.265},
      {"measurement": "glycan array binding signal (z-score)", "setting": "[24]", "value": -0.428},
      {"measurement": "glycan array binding signal (z-score)", "setting": "[25]", "value": -0.392},
      {"measurement": "glycan array binding signal (z-score)", "setting": "[26]", "value": 0.663},
      {"measurement": "glycan array binding signal (z-score)", "setting": "Neu5Ac(a2-6)GalNAc", "value": 0.062},
      {"measurement": "glycan array binding signal (z-score)", "setting": "[27]", "value": 0.222},
      {"measurement": "glycan array binding signal (z-score)", "setting": "[28]", "value": -0.165},
      {"measurement": "glycan array binding signal (z-score)", "setting": "[29]", "value": -0.524},
      {"measurement": "glycan array binding signal (z-score)", "setting": "[30]", "value": -0.367}
    ]}
  ]
}
